The list shows a part of the results.
Tested on: S. aureus RN4220
Experiment: growth inhibition call (relative growth <= 0.2)
Details: 50 µM

Growth inhibition call, inactive:
O=S1(=O)N[C@H](c2ccccc2)CO1, C[C@@H]1CCCCO[C@H](CN(C)Cc2ccc3c(c2)OCO3)[C@H](C)CN([C@H](C)CO)C(=O)c2cc(NC(=O)Nc3cccc4ccccc34)ccc2O1, C[C@@H]1CCCCO[C@@H](CN(C)S(=O)(=O)c2ccc(F)cc2)[C@H](C)CN([C@@H](C)CO)C(=O)c2cc(NC(=O)Cc3ccccc3)ccc2O1, CC(C)c1nc(CN(C)C(=O)N[C@@H](CCN2CCOCC2)C(=O)N[C@H](CC[C@H](Cc2ccccc2)NC(=O)OCc2cncs2)Cc2ccccc2)cs1, O=c1nc2[nH][nH]cc-2c(=O)[nH]1, COc1ccc(NC(=O)N(C)C[C@@H]2OCCCC[C@@H](C)Oc3ccc(NS(=O)(=O)c4ccc(C)cc4)cc3C(=O)N([C@H](C)CO)C[C@H]2C)cc1, CC(=O)N(C)C[C@H]1Oc2cc(C#CCN(C)C)ccc2S(=O)(=O)N([C@@H](C)CO)C[C@@H]1C, CCS(=O)(=O)N1C[C@]2(CCN(CC2)Cc2cccc(c2)OC)c2c([nH]c3cc(ccc23)OC)[C@@H]1CO, C[C@H]1CN([C@@H](C)CO)C(=O)c2cc(C3=CCCC3)cnc2O[C@@H]1CN(C)C(=O)Nc1ccc(C(F)(F)F)cc1, C[C@H](CO)N1C[C@H](C)[C@H](CN(C)Cc2ccccc2)Oc2c(NC(=O)Nc3ccc(C(F)(F)F)cc3)cccc2C1=O, Nc1cccc(OCc2ccccc2)c1, COC(=O)[C@@H](N)Cc1ccc(O)c(O)c1, NC(=O)NCC#Cc1ccc2c(c1)[C@]1(C(=O)N2)[C@H](c2ccc(OCCO)cc2)N2[C@H](c3ccccc3)[C@H](c3ccccc3)OC(=O)[C@H]2[C@@H]1C(=O)N1CCCCCCC1, CC(C)CC#Cc1ccc2c(c1)O[C@H](CN(C)Cc1cncnc1)[C@H](C)CN([C@@H](C)CO)S2(=O)=O, C[C@@H]1CN([C@H](C)CO)C(=O)c2c(c3ccccc3n2C)-c2ccccc2CO[C@@H]1CN(C)Cc1cccc2c1OCCCO2, C[C@@H]1CN([C@@H](C)CO)C(=O)c2cc(NC(=O)CCCN(C)C)ccc2O[C@@H](C)CCCCO[C@H]1CN(C)Cc1ccc(C(F)(F)F)cc1, C[C@H]1CN([C@@H](C)CO)C(=O)c2cc(NS(=O)(=O)c3cn(C)cn3)ccc2O[C@@H]1CN(C)CC1CCCCC1, COc1ccc(Oc2cc(NCCC(F)(F)F)c3ncc(-c4ccc(C(=O)NC5CC5)c(C)c4)n3n2)c(F)c1F, C[C@@H]1CN([C@H](C)CO)C(=O)c2cc(Br)cnc2O[C@H]1CN(C)C(=O)Nc1ccccc1F, COc1ccc(S(=O)(=O)Nc2cccc3c2O[C@H](CN(C)Cc2ccc(Oc4ccccc4)cc2)[C@@H](C)CN([C@@H](C)CO)C3=O)cc1, C[C@H]1CN([C@@H](C)CO)C(=O)c2cc(NC(=O)CCC(F)(F)F)ccc2O[C@@H]1CN(C)Cc1ccc(C(=O)Nc2ccccc2N)cc1, C[C@@H]1CN([C@@H](C)CO)C(=O)c2cc(NC(=O)CCCN(C)C)ccc2O[C@@H]1CN(C)S(=O)(=O)c1ccc(F)cc1, NC(=O)c1ccc[n+](CC(=O)N2CCCCC2)c1, C[C@@H]1CN([C@H](C)CO)C(=O)c2cc(NC(=O)c3ccncc3)ccc2O[C@@H](C)CCCCO[C@H]1CN(C)C(=O)Nc1cccc2ccccc12, C[C@@H]1CCCCO[C@@H](CN(C)C(=O)NC2CCCCC2)[C@H](C)CN([C@@H](C)CO)C(=O)c2cc(NC(=O)Nc3cccc4ccccc34)ccc2O1, Cc1noc(C)c1S(=O)(=O)N(C)C[C@@H]1Oc2ccc(NS(=O)(=O)c3cn(C)cn3)cc2CC(=O)N([C@H](C)CO)C[C@@H]1C, COc1ccc(S(=O)(=O)N(C)C[C@@H]2OCCCC[C@H](C)Oc3ccc(NC(=O)Nc4ccccc4)cc3C(=O)N([C@H](C)CO)C[C@@H]2C)cc1, Cc1ccc(S(=O)(=O)Nc2ccc3c(c2)C(=O)N([C@H](C)CO)C[C@@H](C)[C@H](CN(C)C(=O)Nc2ccccc2)OCCCC[C@@H](C)O3)cc1, CCCN(C)C[C@H]1OCCCC[C@@H](C)Oc2ccc(NC(=O)Nc3c(C)noc3C)cc2C(=O)N([C@H](C)CO)C[C@@H]1C, C[C@@H]1CN([C@@H](C)CO)C(=O)Cc2cc(NC(=O)NC3CCCCC3)ccc2O[C@H]1CN(C)Cc1ccc(Oc2ccccc2)cc1, C[C@@H]1CN([C@@H](C)CO)C(=O)c2cccc(NS(=O)(=O)c3ccccc3)c2O[C@H]1CN(C)S(=O)(=O)c1cccs1, COc1ccc(CN(C)C[C@H]2OCCCC[C@@H](C)Oc3ccc(NC(=O)Nc4cccc5ccccc45)cc3C(=O)N([C@H](C)CO)C[C@H]2C)cc1, CC(=O)N[C@@H](Cc1ccccc1)C(=O)O, CCS(=O)(=O)NCC[C@@H]1CC[C@H](NC(=O)Cc2ccccn2)[C@@H](CO)O1, Cc1ccc(S(=O)(=O)Nc2cccc3c2O[C@@H](CN(C)S(=O)(=O)c2ccc(F)cc2)[C@@H](C)CN([C@H](C)CO)C3=O)cc1, C[C@@H]1CN([C@H](C)CO)C(=O)Cc2cc(NC(=O)c3ccncc3)ccc2O[C@@H]1CN(C)Cc1ccc2c(c1)OCO2, O=C(C[C@H]1CC[C@@H]2[C@H](COC[C@H](O)CN2S(=O)(=O)c2cccc(F)c2)O1)NCc1ccncn1, Cc1noc(C)c1S(=O)(=O)N(C)C[C@@H]1Oc2ccc(NC(=O)Cc3ccccc3)cc2CC(=O)N([C@@H](C)CO)C[C@H]1C, C[C@@H]1CN([C@H](C)CO)C(=O)c2cc(NC(=O)C3CCCCC3)ccc2O[C@@H](C)CCCCO[C@H]1CN(C)S(=O)(=O)c1ccc(Cl)cc1, C[C@@H]1CN([C@H](C)CO)C(=O)c2cccc(NC(=O)Nc3ccccc3)c2O[C@@H]1CN(C)Cc1ccc(C(=O)Nc2ccccc2N)cc1
